Values joined by “and” are separate entries in the source; they are usually repeats but may differ in a detail not shown here. Identical values can stand only once. About 40 (0.2%) of roughly 16,000 compounds were called active. Not shown: some 1% with an inconclusive outcome. The call rests on the fitted dose curve; in most records, active means well fitted activation curve with a large enough effect; inconclusive means small, poorly fitted or top-dose-only effect, or another doubt; inactive means no such curve, though single readings can be large or run the other way. The list shows a part of the results.
On the % scale 0 is the no-effect control and ±100 the full control effect.

This experiment addresses Rap guanine nucleotide exchange factor 4 (Homo sapiens) (UniProt Q8WZA2). In words: Validation qHTS for agonist of cAMP-regulated guanine nucleotide exchange factor 4 (EPAC2).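 Further: exchange makes BODIPY-GDP fluorescence drop when released from Rap1B; series mostly up to about 150 µM.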 To be noted: EPAC2 Rap1B BODIPY-GDP exchange, fluorescence; activation: stronger effect = higher value. An outline of the steps: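 Signal normalized against 6.5 mM cAMP as agonist control. Mix of EPAC2 (100 nM), RAP1B-BODIPY-GDP (250 nM) and GDP (50 uM) was read kinetically at 480/540 nm, every 5 min over 30 min, after 5 min room-temperature incubation with compound.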
UniProt Q8WZA2, sequence (Q8WZA2 whole entry, looked up): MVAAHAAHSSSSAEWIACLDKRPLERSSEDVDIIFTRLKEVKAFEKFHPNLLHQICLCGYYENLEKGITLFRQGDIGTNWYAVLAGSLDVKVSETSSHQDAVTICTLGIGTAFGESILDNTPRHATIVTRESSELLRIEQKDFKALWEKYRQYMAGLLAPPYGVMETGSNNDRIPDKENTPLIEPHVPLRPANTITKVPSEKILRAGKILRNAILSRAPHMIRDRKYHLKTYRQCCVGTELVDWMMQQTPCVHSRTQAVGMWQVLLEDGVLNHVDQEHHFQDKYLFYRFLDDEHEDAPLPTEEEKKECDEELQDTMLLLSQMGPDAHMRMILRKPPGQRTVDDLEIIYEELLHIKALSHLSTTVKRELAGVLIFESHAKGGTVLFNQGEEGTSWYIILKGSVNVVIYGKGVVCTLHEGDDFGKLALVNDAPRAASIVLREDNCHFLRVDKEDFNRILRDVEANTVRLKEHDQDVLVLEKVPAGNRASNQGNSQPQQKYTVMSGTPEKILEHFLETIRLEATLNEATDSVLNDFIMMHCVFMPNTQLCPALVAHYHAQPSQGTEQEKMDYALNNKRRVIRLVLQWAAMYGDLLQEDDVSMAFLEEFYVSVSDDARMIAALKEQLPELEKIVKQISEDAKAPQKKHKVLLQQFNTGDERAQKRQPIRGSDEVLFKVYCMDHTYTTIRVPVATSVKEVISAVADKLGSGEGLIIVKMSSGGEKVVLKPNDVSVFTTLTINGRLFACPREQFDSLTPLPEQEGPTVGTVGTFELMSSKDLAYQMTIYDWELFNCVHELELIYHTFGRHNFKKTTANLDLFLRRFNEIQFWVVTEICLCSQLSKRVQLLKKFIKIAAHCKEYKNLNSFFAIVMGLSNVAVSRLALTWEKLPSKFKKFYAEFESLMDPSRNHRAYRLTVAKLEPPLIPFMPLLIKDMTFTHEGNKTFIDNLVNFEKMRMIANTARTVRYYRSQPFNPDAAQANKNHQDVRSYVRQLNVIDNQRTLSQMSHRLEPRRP
Turning to `COc1ccccc1N1CCN(CCN2C(=O)CC3(CCCC3)CC2=O)CC1`, the activation is inactive: -4.65% and inactive: -12% and inactive: -19.2%.
Then `CC[C@H](C)N(C)C(=O)c1cc2ccccc2c(-c2ccccc2Cl)n1`, with inactive: -26.6%; and `CC(O)(COc1ccccc1)c1ccc2c(c1)CN(Cc1cccn1-c1ccccn1)CCO2` (stereo unspecified), with inactive: -12.6%; and `CC(=O)N1CCC2(CC1)CCN(c1ncccn1)CC2`, with inactive: -1.55%.
For the compound `C=C1CC2C3CCC4=CC(=O)C=C[C@]4(C)[C@@]3(F)[C@@H](O)C[C@]2(C)[C@@]1(O)C(=O)COC(C)=O` (stereo partly specified), the activation was inactive: -5.09%.
As for `COC(=O)[C@H]1C(OC)[C@@H](OC(=O)c2cc(OC)c(OC)c(OC)c2)C[C@@H]2CN3CCc4c([nH]c5cc(OC)ccc45)[C@H]3C[C@H]21` (stereo partly specified), the figure is inactive: 4.12%; as for `O=c1c(-c2ccc(F)cc2)nc2cnc(Nc3ccccc3)nc2n1Cc1cccs1`, inactive: 4.73%.
Then `Cc1cccc(CNc2ncnc3ccc(-c4c(C)noc4C)cc23)c1`, with inactive: -1.15%.
In the case of `CCC1CN(Cc2ccc(COC)o2)Cc2cc(OC)ccc2O1` (stereo unspecified), the activation is inactive: -4.26%.
As for `COc1cccc(Cn2c(=O)c(-c3cc(F)cc(F)c3)nc3cnc(OC)nc32)c1`, the figure is inactive: 1.52%.
For the compound `CN(C)CCC(c1ccc(Cl)cc1)c1ccccn1` (stereo unspecified), the activation was inactive: -4.9%.
Then `COc1cc(N)c(Cl)cc1C(=O)NC1CCN(CCCOc2ccc(F)cc2)CC1OC` (stereo unspecified), with inactive: -18.4%.
Then `C[C@H](O)C(=O)C1=Nc2c(nc(N)[nH]c2=O)NC1`, with inactive: 21.3%; and `C[C@H]1C[C@H]2[C@@H]3CCC4=CC(=O)C=C[C@]4(C)[C@@]3(F)[C@@H](O)C[C@]2(C)[C@@]1(O)C(=O)CCl`, with inactive: -13.5%; and `COc1ccc2cc1Oc1ccc(cc1)C[C@H]1c3c(cc4c(c3Oc3cc5c(cc3OC)CCN(C)[C@@H]5C2)OCO4)CCN1C`, with inactive: -6.67%.
As for `COc1cc(C(O)C(=O)O)ccc1O` (stereo unspecified), the figure is inactive: 7.62% and inactive: -17.2%.
Consider `COCCNc1ncncc1-c1c(C)noc1C`, for which the activation was inactive: -2.64%.
For `Cc1ccc(C(=O)N(Cc2cc3cc4c(cc3nc2N2CCOCC2)CCC4)CC2CCCO2)cc1` (stereo unspecified), the activation is inactive: -6.83%.
On to `O=C(O)c1ccccc1Nc1cccc(OCc2ccc3ccccc3n2)c1`, for which the activation was inactive: 7.41% and inactive: -13%.
As for `CC(=O)c1ccc(C(=O)NCc2nc(-c3ccccc3NC(=O)c3cc(C)oc3C)oc2C)cc1`, the figure is inactive: -4.73%; as for `CC(=O)NCCc1c(Cc2ccccc2)[nH]c2ccccc12`, inactive: -17.5% and inactive: 2.98%.
As to `CN(C)CC/C=C1/c2ccccc2COc2ccccc21`, the activation was inactive: -4.6%.
Regarding `c1cncc(-c2ccc3ncnc(NCCN4CCOCC4)c3c2)c1`, the activation is inactive: -14.5%.
As to `COc1ncc2nc(-c3ccccc3)c(=O)n(-c3ccccc3)c2n1`, the activation was inactive: -16.7%.
Then `O=C(c1cccc(F)c1)N1CCC2(CC1)CN(c1ccc(-c3ccccc3)cc1)C2`, with inactive: -11.2%; and `COc1ccc(C2OC3C(CO)OC(n4cnc5c(=O)[nH]c(N)nc54)C3O2)cc1` (stereo unspecified), with inactive: -2.86%.
As for `O=C(COCCOCCOCC(=O)Nc1c(I)cc(I)c(C(=O)O)c1I)Nc1c(I)cc(I)c(C(=O)O)c1I`, the figure is inactive: -3.4%; as for `O=C(N[C@H]1CCC(=O)N([C@H](CSc2ccc(Br)cc2)Cc2ccccc2)CC1)OCc1ccccc1`, inactive: -3.76%; as for `C=CCOc1cc(Cl)ccc1C(=O)NCCN(CC)CC`, inactive: -8.15%.
As to `CN1CCC(N(Cc2cccs2)c2ccccc2)CC1`, the activation was inactive: -2.84%.
As for `COC1=C(OC)C(=O)C(C/C=C(\C)CC/C=C(\C)CC/C=C(\C)CC/C=C(\C)CC/C=C(\C)CC/C=C(\C)CC/C=C(\C)CC/C=C(\C)CC/C=C(\C)CCC=C(C)C)=C(C)C1=O`, the figure is inactive: -0.172%.
Then `COC(=O)c1cc(CNC(=O)c2ccc(N(C)C)cc2)cc(NC(=O)c2ccccc2Cl)c1`, with inactive: -9.56%; and `O=C(CSc1ccncc1)NCC1Cc2cccc(-c3cncnc3)c2O1` (stereo unspecified), with inactive: 8.54%.
As to `COc1ccc(O)c(CN2CCC3(CC2)c2ccccc2[C@@H](NC(=O)c2cccc(F)c2)[C@@H]3OC)c1`, the activation is inactive: 6.2%.
Consider `Cn1c(=O)c2[nH]c(Br)nc2n(C)c1=O`, for which the activation was inactive: -27.1%.
For `NC(=O)[C@@H]1CCCN1C(=O)[C@H](Cc1cnc[nH]1)NC(=O)[C@@H]1CCC(=O)N1`, the activation was inactive: -38.4%.
Then `CCCCC[C@H](O)/C=C/[C@@H]1[C@H]2C/C(=C/CCCC(=O)O)O[C@H]2C[C@H]1O`, with inactive: -14.7%; and `CC(=O)OC1CC2C(C)(C)C(O)C=C[C@@]2(C)C2CC[C@@]3(C)C(c4ccoc4)OC(=O)C4OC43[C@]12C` (stereo partly specified), with inactive: -7.82%; and `O=C(c1ccncc1)N1CCC[C@@]2(CCN(C(c3ccccc3)c3ccccc3)C2)C1`, with inactive: -1.1%.
Then `O=C(C[n+]1ccccc1Cl)c1ccc(F)cc1`, with inactive: -11%; and `COc1ccc(-n2ccc(-c3sc(NCc4cc(OC)c5c(c4)OCO5)nc3C)n2)cc1`, with inactive: -13.3%.
For `Cc1ccccc1C1(CC(=O)N2CC3CC4CC(C3)CC2C4)CC(=O)N(Cc2cccnc2)C1=O` (stereo unspecified), the activation was inactive: 5.19%.
Turning to `COc1ccccc1CNc1ccnc(-c2ccc(N(C)C)cc2)n1`, the activation is inactive: -2.97%.
Then `COc1ccc(CC(=O)c2ccc(O)cc2O)cc1`, with inactive: -11.3%; and `COc1cccc(-c2nc(NC3CC3)c3ccccc3n2)c1`, with inactive: 3.34%.
As for `O=C(NCC1Cc2cc(F)cc(-c3cccnc3)c2O1)c1cnn(-c2ccccc2)c1` (stereo unspecified), the figure is inactive: -18.5%; as for `CCC(O)CNC(=O)c1cnn(-c2ncc3c(n2)-c2ccc(OC)cc2CC3)c1C1CC1` (stereo unspecified), inactive: 3.71%; as for `COCc1c(C(=O)N2CCN(C(C)C)CC2)cnn1-c1nccc(-c2cc(C)sc2C)n1`, inactive: 2.49%.
Then `C=C1CCC2C(C)(CO)C(O)CCC2(C)C1C/C=C1\C(=O)OCC1O` (stereo unspecified), with inactive: 1.28%; and `COc1cc(=O)n2c(c1C(=O)NC(C)c1ccco1)CCN(C(=O)c1cccc(C)c1C)CC2` (stereo unspecified), with inactive: -10.2%; and `CCOC(=O)c1ccc(O)cc1`, with inactive: 1.32%.
`COc1cccc(CNC(=O)c2c(OC)cc(=O)n3c2CCN(C(=O)c2ccc(Cl)cc2)CC3)c1`: the activation was inactive: -0.819%.
With `COc1cccc(Cn2c(=O)c(-c3cn(C)c4ccccc34)nc3cnc(N4CCNCC4)nc32)c1`, the activation is inactive: 16.5%.
In the case of `CC(=O)O[C@H]1Cc2ccccc2N(C(N)=O)c2ccccc21`, the activation is inactive: -16.5%.
Regarding `Nn1cc(Br)c(=O)[nH]c1=O`, the activation was inactive: 12%.
Then `O=C(O)C(=O)Nc1cccc(C2=NN=N[N]2)c1`, with inactive: -9.17%; and `COc1cccc(Cn2c(=O)cnc3cnc(Oc4ccccc4)nc32)c1`, with inactive: 3.16%.
Turning to `CCNc1ncc2nc(-c3cn(C)c4ccccc34)c(=O)n(Cc3cccs3)c2n1`, the activation was inactive: -1.05%.
As for `O=C(c1cnn(-c2nccc(-c3ccccc3C(F)(F)F)n2)c1C1CC1)N1CCN(CCO)CC1`, the figure is inactive: -14.1%.
Turning to `COc1ccc(CCNC(=O)c2cnn(-c3nccc(-c4ccco4)n3)c2C)cc1`, the activation was inactive: -3.09%.
`CCN1CCN(c2cc(-c3ccc(F)cc3)c3c(n2)CCCCCC3)CC1`: the activation was inactive: 6.49%.
Then `CCNc1ncc2nc(CCc3ccccc3)c(=O)n(CCOC)c2n1`, with inactive: -7.67%; and `Cc1ncc2c(c1CNC(=O)c1ccc3c(c1)OCO3)CCN(C(=O)c1noc3c1CCCC3)C2`, with inactive: -0.55%; and `[N-]=[N+]=Nc1ccc(C(=O)CSC[C@H](NC(=O)CC[C@H](N)C(=O)O)C(=O)NCC(=O)O)cc1`, with inactive: -68.8%.
Turning to `CN(C)Cc1ccccc1-c1cc(NC2CC2)ncn1`, the activation is inactive: 1.42%.
`O=S(=O)(c1ccccc1)N1CCC[C@@]2(CCN(c3cccc(-c4ccccc4)c3)C2)C1`: the activation was inactive: -2.01%.
As to `O=C(c1csnn1)N1CCC[C@@]2(CCN(C(c3ccccc3)c3ccccc3)C2)C1`, the activation is inactive: -4.01%.
Regarding `O=C(c1cccnc1)C1CCCN(Cc2ccc3c(c2)CN(C(=O)c2cn4ccccc4n2)CCO3)C1` (stereo unspecified), the activation was inactive: -31.2%.
Then `CN1C[C@H](C(=O)N[C@]2(C)O[C@@]3(O)[C@H]4CCCN4C(=O)[C@H](Cc4ccccc4)N3C2=O)C[C@H]2c3cccc4[nH]cc(c34)C[C@@H]21`, with inactive: 1.66%.
Take `O=C(/C=C/c1ccccc1)c1ccc(O)cc1O`: the activation is inactive: -25.8%.
Then `Cc1nc2cnc(Oc3cccc(Cl)c3)nc2n(C2CC2)c1=O`, with inactive: -2.27%; and `CN1CC(=O)N2C(Cc3c([nH]c4ccccc34)[C@H]2c2ccc3c(c2)OCO3)C1=O` (stereo partly specified), with inactive: -21%; and `COC(=O)C[C@H]1c2cc(F)ccc2S(=O)(=O)N1C1CC1`, with inactive: -27.2%.
As for `O=C1c2ccccc2C(Cc2ccncc2)(Cc2ccncc2)c2ccccc21`, the figure is inactive: -2.78%; as for `CN1CCCC(CN(C)C(=O)c2cnn(-c3nccc(-c4ccccc4C(F)(F)F)n3)c2C2CC2)C1` (stereo unspecified), inactive: 0.0463%; as for `O=C1CCc2c(ccc3ccccc23)O1`, inactive: -34.9% and inactive: 2.88%.
Then `COc1ccccc1C1CN(CCNC(=O)C2=CCCC2)Cc2ccccc2O1` (stereo unspecified), with inactive: -18.2%.
Consider `Cn1c(=O)c2c(ncn2C)n(C)c1=O`, for which the activation was inactive: -2.53% [middle of 4 runs].
Then `Cc1cnc(C)c(-c2ccc(F)c3c2OC(CNC(=O)Cc2c(C)[nH]c4ccccc24)C3)n1` (stereo unspecified), with inactive: -19.4%; and `CN(C)C(=O)c1ccc(-c2cncnc2NCc2ccccc2)cc1`, with inactive: -9.06%.
Then `COc1ccccc1N1CCN(c2nc(CNC(=O)C3CC34CCCC4)nc3ccccc23)CC1` (stereo unspecified), with inactive: -20.5%.

These data come from PubChem BioAssay AID1645887 (National Center for Advancing Translational Sciences (NCATS), 2021).
